This note sets out measurements from PMC4336329 (PLoS ONE, 2015).

Out of some 310,000 compounds screened, about 14,000 (4.5%) showed an effect of 50% or more. Effects have a minus sign here. The list shows a part of the results.
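Further: peak tail current of the secondary pulse compared with the same well before compound.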

For the experiment, the target named is human ether-à-go-go-related gene (hERG) potassium channel (human, UniProt Q12809). Nature of the experiment: primary screen, population patch clamp on CHO cells stably expressing hERG.
human ether-à-go-go-related gene (hERG) potassium channel, sequence (Q12809 whole entry, looked up): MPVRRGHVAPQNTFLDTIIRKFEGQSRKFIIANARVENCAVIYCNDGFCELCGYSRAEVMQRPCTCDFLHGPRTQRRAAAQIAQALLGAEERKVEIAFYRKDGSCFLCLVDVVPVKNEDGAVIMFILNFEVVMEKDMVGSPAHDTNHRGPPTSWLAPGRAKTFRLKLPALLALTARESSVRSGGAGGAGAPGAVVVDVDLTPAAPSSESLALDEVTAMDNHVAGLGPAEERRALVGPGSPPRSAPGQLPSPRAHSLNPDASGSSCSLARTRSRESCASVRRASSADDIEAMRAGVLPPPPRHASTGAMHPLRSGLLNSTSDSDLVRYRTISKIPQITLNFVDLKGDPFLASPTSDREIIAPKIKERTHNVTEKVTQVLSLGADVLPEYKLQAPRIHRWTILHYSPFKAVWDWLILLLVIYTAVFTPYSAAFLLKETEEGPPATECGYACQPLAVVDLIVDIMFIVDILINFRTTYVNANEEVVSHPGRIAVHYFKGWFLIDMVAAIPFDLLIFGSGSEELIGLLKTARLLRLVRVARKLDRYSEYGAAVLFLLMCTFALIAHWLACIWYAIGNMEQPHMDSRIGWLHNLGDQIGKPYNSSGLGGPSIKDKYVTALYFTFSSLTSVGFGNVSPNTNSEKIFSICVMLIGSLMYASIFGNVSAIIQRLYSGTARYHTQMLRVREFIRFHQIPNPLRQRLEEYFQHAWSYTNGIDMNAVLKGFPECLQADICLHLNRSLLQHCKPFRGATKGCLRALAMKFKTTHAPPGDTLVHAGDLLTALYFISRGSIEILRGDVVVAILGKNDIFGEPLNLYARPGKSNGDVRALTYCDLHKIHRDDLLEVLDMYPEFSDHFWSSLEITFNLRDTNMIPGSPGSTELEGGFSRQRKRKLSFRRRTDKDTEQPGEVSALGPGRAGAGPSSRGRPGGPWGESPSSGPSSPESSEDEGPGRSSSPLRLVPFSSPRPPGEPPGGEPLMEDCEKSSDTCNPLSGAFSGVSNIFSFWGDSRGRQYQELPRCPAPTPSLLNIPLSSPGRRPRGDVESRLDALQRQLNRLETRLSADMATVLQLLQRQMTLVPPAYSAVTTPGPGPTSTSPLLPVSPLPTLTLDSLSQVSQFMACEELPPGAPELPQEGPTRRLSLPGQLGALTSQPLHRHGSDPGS
On to `Cc1cccc(OCCNC(=O)c2ccc(Cl)c(S(=O)(=O)NCc3cccnc3)c2)c1`, for which the “hERG current change (%, negative = inhibition) at 10uM” value is -32.8%. `CC1CCN(CC(=O)Nc2ccccc2C#N)CC1`: the “hERG current change (%, negative = inhibition) at 10uM” value is listed as 3.06%.

Regarding `COc1ccc(-c2[nH]ncc2CNC(C)c2ccccc2Cl)cc1F` (stereo not shown), the “hERG current change (%, negative = inhibition) at 10uM” value is recorded as -15.6%. The figure for `COc1cc2nc(CN3CCOCC3)n(CC(=O)NCC(F)(F)F)c(=O)c2cc1OC` is 5.18%.

`CC(C)C(=O)N1CCN(c2ccccc2NC(=O)c2ccco2)CC1`: the “hERG current change (%, negative = inhibition) at 10uM” value is -32.6%.

Turning to `CC(=O)c1cccc(S(=O)(=O)N2CCC(C(=O)N(C)Cc3ccc(Cl)s3)CC2)c1`, the “hERG current change (%, negative = inhibition) at 10uM” value is given as -25.3%.

In the case of `COC(=O)c1sccc1OC(C)C(C)=O` (stereo not shown), the “hERG current change (%, negative = inhibition) at 10uM” value is given as 1.88%.

Regarding `CN(Cc1ccccc1)S(=O)(=O)c1ccc(OCC(=O)NCc2ccncc2)cc1`, the “hERG current change (%, negative = inhibition) at 10uM” value is -53.6%. The figure for `COc1ccc(S(=O)(=O)N2CCCC(C(=O)NCc3ccncc3)C2)cc1` (stereo not shown) is -19.4%; for `CC(=O)c1ccc(N2CCN(C(=O)C3(S(=O)(=O)c4ccc(Cl)cc4)CC3)CC2)cc1` it is -51.8%. Turning to `O=C(NCc1ccccc1)[C@H]1C[C@@H]1[C@H](NP(=O)(c1ccccc1)c1ccccc1)c1ccccc1`, the “hERG current change (%, negative = inhibition) at 10uM” value amounted to 12.2%.

Turning to `CCOc1cc(C(=O)N/N=C(\C)Cc2ccc(OC)cc2)cc(OCC)c1OCC`, the “hERG current change (%, negative = inhibition) at 10uM” value is given as -3.15%. The figure for `O=C1/C(=C/c2ccccc2)CCC1C1CCCC1` (stereo not shown) is 0.186%. In the case of `Cc1nc(SC(C(=O)c2ccccc2)c2ccccc2)nc2ccccc12` (stereo not shown) it was -0.605%; in that of `N#Cc1ccc(CSc2ccc(S(=O)(=O)N3CCCC3)cn2)cc1`, -67.2%; in that of `CC(C)N(CCNC(=O)c1nn(Cc2ccccc2)c(=O)c2ccccc12)C(C)C`, -66.1%. The figure for `CN1CCc2nc3sc(C(=O)NC4CC4)c(N)c3cc2C1` is 9.22%; for `O=C(Cc1c(O)c2ccccc2[nH]c1=O)NCc1ccccc1F` it is 3.31%.

For the compound `OCC1(CO)COC(c2ccccc2)=N1`, the “hERG current change (%, negative = inhibition) at 10uM” value is listed as -1.57%.

In the case of `O=c1[nH]c(=S)n(CCC2=CCCCC2)c(O)c1C=NC1CCN(Cc2ccccc2)CC1`, the “hERG current change (%, negative = inhibition) at 10uM” value is given as -55%. In the case of `CC(=O)Nc1nonc1-c1ccccc1` it was -3.47%; in that of `COCc1ccc(-c2c(-c3cccc(OC)c3)sc3ccc(OC)cc23)cc1`, 15.3%; in that of `CCc1ccc(/C(C)=N/Nc2cc(Cl)nc(C)n2)cc1`, 7.05%. In the case of `CCOC(=O)c1c(C)oc2ccc(O)c(CN3CCCCC3)c12` it was -37.4%; in that of `CCOc1cccc(CN2CCCC(CNC(=O)c3cccc(OC)c3OC)C2)c1` (stereo not shown), -9.11%; in that of `CCCCNC(=O)C1=C(N)C(C(=O)Nc2ccc(C)c(S(=O)(=O)N3CCCCC3)c2)SC1=Nc1ccc(C)cc1C` (stereo not shown), -1.93%. Take `O=C(CCNC(=O)C1CCN(S(=O)(=O)c2ccccc2)CC1)Nc1cccc(C(F)(F)F)c1`: the “hERG current change (%, negative = inhibition) at 10uM” value is given as -45.1%.

`COc1cc(-c2noc(CCC(=O)NC3CCCCC3)n2)cc(OC)c1OC`: the “hERG current change (%, negative = inhibition) at 10uM” value turned out to be 13.9%. The figure for `CC1(O)CCN2C(=O)CCc3cccc1c32` (stereo not shown) is -9.44%; for `NC(=O)C1(N2CCCCC2)CCN(C2CC(=O)N(CCc3ccccc3)C2=O)CC1` (stereo not shown) it is -0.618%; for `Cn1c(=O)c2c(nc(N3CCc4ccccc4C3)n2Cc2ccccc2F)n(C)c1=O` it is -20.7%.

For `Cc1cccc2cc(-c3ccccc3)c(-c3ccccc3)c[n+]12.[Br-]`, the “hERG current change (%, negative = inhibition) at 10uM” value is -45.4%. In the case of `O=C1COc2ccc3ccccc3c2CN1` it was 6.37%; in that of `COC(=O)C1C/C(=N\NS(=O)(=O)c2ccc(C)cc2)c2sccc2C1` (stereo not shown), -12.5%; in that of `O=c1cc(-c2ccc3c(c2)OCCO3)oc2ccc(Cl)cc12`, -1.8%. In the case of `Cc1cccc(NC(=O)c2ccccc2C(=O)O)c1` it was -11.5%. Consider `O=C(NC(=S)NCCN1CCOCC1)c1ccc(F)cc1`, for which the “hERG current change (%, negative = inhibition) at 10uM” value is given as -4.01%.

Turning to `Cc1ccc(C(=O)NNC(=O)Cc2nc3nc(C)cc(C)n3n2)cc1`, the “hERG current change (%, negative = inhibition) at 10uM” value stood at 11.9%. The figure for `COC(CNC(=O)c1cnn2c(C)c(Cc3ccccc3)c(C)nc12)OC` is -19%; for `CC(C)N(C)S(=O)(=O)c1ccc(NC(=O)CSC(=S)N2CCCC2)cc1` it is 0.708%; for `CN(CC(=O)Nc1ccc(F)c(F)c1F)C(=O)c1ccc(=O)[nH]c1` it is 0.382%.

Regarding `O=C(N1CCCC1)N1CCN(S(=O)(=O)c2ccccc2)CC1`, the “hERG current change (%, negative = inhibition) at 10uM” value is 7.18%.

Consider `CCCCn1c(CN2CCOCC2)nc2c1c(=O)n(C)c(=O)n2C`, for which the “hERG current change (%, negative = inhibition) at 10uM” value is 4.48%. In the case of `CC(=O)Nc1ccc(Nc2ncnc3c2cnn3-c2ccc(C)cc2C)cc1` it was -18.8%. The figure for `COc1ccc(C(=O)O)cc1S(=O)(=O)NCc1cccnc1` is 19.4%; for `C/C=C(\C)CN1CCC(Oc2cc(C(=O)NC3CC3)ccc2OC)CC1` it is -64.5%. The figure for `O=C(COC(=O)c1cc(=O)[nH]c2ccccc12)NC1CCCCCCC1` is -2.97%; for `COC(=O)C(C(=O)OC)C(c1ccccc1)C(C(=O)c1ccccc1)[N+](=O)[O-]` (stereo not shown) it is 4.74%; for `O=C(CCc1nc2ccccc2[nH]c1=O)OCC(=O)c1ccc(Cl)cc1` it is 2.47%. Take `C/C(=N\NC(=O)COc1ccccc1[N+](=O)[O-])c1cccc(NC(=O)c2ccncc2)c1`: the “hERG current change (%, negative = inhibition) at 10uM” value is listed as -8.15%. The figure for `COc1ccc(-c2csc(NC(=O)Cc3ccccc3F)n2)cc1OC` is 2.29%; for `O=C(c1cc(N2C(=O)C3C4CCC(C4)C3C2=O)ccc1Cl)N1CCN(c2ccccc2F)CC1` (stereo not shown) it is -0.361%. The figure for `Cc1ccc2c(c1C)NC(=O)C2(O)CC(=O)c1ccc2c(c1)OCO2` (stereo not shown) is -6.7%. As for `COc1ccc(Cn2ccnc2)cc1Br.Cl`, the “hERG current change (%, negative = inhibition) at 10uM” value is listed as 1.37%. In the case of `COc1ccccc1OCCCn1cc(C(=O)C2CC2)c2ccccc21` it was -2.64%.
